Data on 63 compounds can be found in PubChem BioAssay AID1963576 (National Center for Advancing Translational Sciences (NCATS), 2024).

About 60 (0.1%) of roughly 46,000 compounds were called active. Roughly 3% stayed inconclusive and do not appear here. Calls follow the shape of the dose curve; as a rule, active = well fitted inhibition curve with a large enough effect; inconclusive = small, poorly fitted or top-dose-only effect; inactive = no such curve, though single readings can be large or run the other way. This is one part of the list.

The nature of this test: Primary qHTS assay for Inhibitors of ovarian cancer metastasis using an organotypic tumor microenvironment (TME) model. Also: nearly all actives have a fitted effect of over 65% in size.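 As to activity change, negative = inhibition: plate controls were DMSO wells for no effect and tomatine positive control wells for full effect.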 Conditions: SKOV3ip1-GFP adhesion/invasion on 3D omental model, fluorescence; series mostly up to 45.8 µM; activity change, negative = inhibition: at the top concentration. Put shortly:
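Adhesion/invasion was scored as fixed GFP-labeled SKOV3ip1 cell counts (488/509 nm), normalized to DMSO and tomatine controls. Cancer cells in serum-free medium, with four compound doses (0.36-46 umol/L), sat 2 hr at RT then 16 hr at 37 C on a 48 hr fibroblast/mesothelial/ECM culture.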
Regarding `CCOc1ccc2c(c1)c(=O)c(S(=O)(=O)c1ccc(CC)cc1)cn2CC`, the “activity change, negative = inhibition” value was inactive: 1.11%.
Same read-out and setting: the same measure for `CCc1ccc(OCC(=O)Nc2cc3oc4ccccc4c3cc2OC)c(Br)c1`: inactive: -1.63%; for `Cc1c(C(=O)N2CCCCCC2)c(S(=O)(=O)Nc2ccc(OC(F)(F)F)cc2)c(C)n1C`: inactive: 0.266%; for `CCOc1ccc(CCNC(=O)CCCc2nnc3n(CCCOC)c(=O)c4sccc4n23)cc1`: inactive: 3.23%.
Turning to `O=C1CC(c2ccccc2)Cc2[nH]c(=O)c(C(=O)Nc3ccc(F)cc3)cc21` (stereo not drawn), the “activity change, negative = inhibition” value is inactive: -26.3%.
For `CCOC(=O)c1ccc(NC(=O)CSc2cc(-c3ccccc3)nc(C)n2)cc1`, the “activity change, negative = inhibition” value is inactive: -5.11%.
In the case of `O=C(CNC(=O)c1ccccc1Cl)OCc1cc(=O)n2nc(C3CC3)sc2n1`, the outcome was inactive.
Regarding `Cc1c(-c2ccc(Cl)cc2)c(=O)oc2c(CN3CCN(C)CC3)c(O)ccc12`, the “activity change, negative = inhibition” value is inactive: 15.7%.
For the compound `Cc1ccc(C)c(N(C)C(=O)CCNC(=O)Cn2cnc3ccccc3c2=O)c1`, the “activity change, negative = inhibition” value was inactive: 0.627%.
For the compound `CC(C)CC(=O)Nc1nnc(S(=O)(=O)N(C)c2ccc(Cl)cc2)s1`, the compound was called inactive.
Regarding `O=C(Nc1cccc(Cl)c1)C(Cc1ccccc1)n1cccc1` (stereo not drawn), the “activity change, negative = inhibition” value is inactive: -5.15%.
On the same count and under the same terms, the same measure for `CCC1Oc2ccc(C)cc2N(CC(=O)NCc2ccc(F)cc2)C1=O` (stereo not drawn): inactive: 0.295%; for `O=S(=O)(c1cccc2cnccc12)N1CCCNCC1`: inactive: 13.8%.
For `CCOc1ccc(C2c3c(-c4ccccc4O)n[nH]c3C(=O)N2Cc2cccnc2)cc1OC` (stereo not drawn), the “activity change, negative = inhibition” value was inactive: -5.55%.
For the compound `CC(C)c1nn2c(=O)cc(COC(=O)c3cccc(NC(=O)c4ccccc4F)c3)nc2s1`, the outcome was inactive.
Take `COc1cccc2sc(N(Cc3cccnc3)C(=O)C3CCCCC3)nc12`: the “activity change, negative = inhibition” value is inactive: -7.76%.
Same read-out and setting: the same measure for `CCOC(=O)C1CCCN(C(=O)c2cc3c(Cl)nc4ccccc4c3s2)C1` (stereo not drawn): inactive: 3.81%.
As for `CC1CCc2c(sc3nc(-c4cc5ccccc5oc4=O)nc(Cl)c23)C1` (stereo not drawn), the compound was classed as inactive.
With `O=C(NCCS(=O)(=O)N1CCN(c2ccccc2F)CC1)c1ccccc1C(F)(F)F`, the result was inactive.
For the compound `COc1cccc(CNC(=O)Cn2c(=O)cc(C(F)(F)F)c3c(C)nn(C)c32)c1OC`, the call was inactive.
As for `CCOC(=O)c1ccc2c(c1)sc1nc(-c3ccc(OCC)cc3)cn12`, the “activity change, negative = inhibition” value is inactive: -11.1%.
With `CCN(CC)CCCNC(=O)c1c2c(nc3ccccc13)C(=O)N(C1CCCCC1)C2`, the “activity change, negative = inhibition” value is inactive: -6.98%.
In the case of `Fc1ccc(F)c(Nc2c3c(nc4ccc(Cl)cc24)CCC3)c1`, the compound was classed as inactive.
On to `CCOC(=O)c1c(NC(=O)c2cc(=O)c3cc(Cl)ccc3o2)sc(C)c1C`, for which the “activity change, negative = inhibition” value is inactive: 9.42%.
In the case of `COc1ccc(NC(=O)CCc2nc3cccnc3n2-c2ccccc2)c(OC)c1`, the “activity change, negative = inhibition” value is inactive: 0.974%.
On to `Cc1cccc2sc(N(Cc3cccnc3)C(=O)CCS(=O)(=O)c3ccccc3)nc12`, for which the “activity change, negative = inhibition” value was inactive: -19.8%.
With `COc1ccc(N2C(=O)C(CC(=O)Nc3ccc(Cl)cc3)N(Cc3ccc4c(c3)OCO4)C2=O)cc1` (stereo not drawn), the “activity change, negative = inhibition” value was inactive: 2.93%.
For `CCN1CCN(C(c2ccc(C)cc2)c2sc3nc(-c4ccco4)nn3c2O)CC1` (stereo not drawn), the “activity change, negative = inhibition” value is inactive: 8.72%.
Take `COCCn1c(=N)c(C(=O)NCC2CCCO2)cc2c(=O)n3ccccc3nc21` (stereo not drawn): the call was inactive.
Regarding `CCOc1ccc(CCNC(=O)CSc2nnnn2-c2ccccc2Cl)cc1OCC`, the “activity change, negative = inhibition” value is inactive: -22.1%.
For the compound `COc1cc(C(=O)Nc2ccccc2OCc2cc(=O)n3c(C)csc3n2)cc(OC)c1OC`, the “activity change, negative = inhibition” value was inactive: -2.46%.
On the same count and under the same terms, with `Cc1ccc(C)c(N2CCN(C(=O)CN3CCSc4ccccc43)CC2)c1` the figure was inactive: -3.78%; with `Cc1cccc(-c2nc(SCc3cc(=O)c4cccc(F)c4[nH]3)n[nH]2)c1`, inactive: -2.51%; with `CC1N=C2c3ccccc3N=C(SCC(=O)NCc3ccc(Cl)cc3)N2C1=O` (stereo not drawn), inactive: 0.0584%.
With `COCCCNC(=O)c1sc2nc(C)c(C(=O)Nc3ccc(Cl)cc3)c(-c3ccc(Br)cc3)c2c1N`, the “activity change, negative = inhibition” value is inactive: 1.6%.
Consider `COc1cccc(NC(=O)CSc2cc(C)[nH]c(=O)n2)c1`, for which the compound was classed as inactive.
Consider `CCN(CC)c1nn2c(=O)c(C(=O)NCc3cccc(OC)c3OC)cnc2s1`, for which the “activity change, negative = inhibition” value was inactive: 7.67%.
`Cc1c2cnn(-c3ccccc3)c(=O)c2c(C)n1CC(=O)N1CCN(c2cccc(Cl)c2)CC1`: the compound was called inactive.
As for `Cc1nc(SCC(=O)Nc2ccccc2Cl)cc(-c2ccccc2)n1`, the outcome was inactive.
Take `COc1ccc(CNC(=O)c2cnn(-c3ccc(OC)cc3)c2C2CCN(C(=O)OC(C)(C)C)CC2)cc1`: the “activity change, negative = inhibition” value is inactive: 5.43%.
Still for that read-out and setting: the same measure for `CCS(=O)(=O)N1CC(=O)N(c2cccc(C)c2C)C(C)(C(=O)NC2CCCCCC2)C1` (stereo not drawn): inactive: 7.91%.
Turning to `COc1cccc(-c2n[nH]c3c2C(c2cccc(O)c2)N(C)C3=O)c1` (stereo not drawn), the compound was called inactive.
Turning to `O=C1c2oc3ccccc3c(=O)c2C(c2ccccc2F)N1Cc1ccc2c(c1)OCO2` (stereo not drawn), the “activity change, negative = inhibition” value was inactive: 8.63%.
`O=C(Nc1cccc2cccnc12)c1cccc2c(Br)cccc12`: the “activity change, negative = inhibition” value was inactive: -0.353%.
With `CCc1cc2c(cc3c(=O)n(CC(=O)NC4CCC(C)CC4)nc(CC)n32)s1` (stereo not drawn), the “activity change, negative = inhibition” value was inactive: -5.44%.
`Cc1c(C(=O)N(C)c2ccccc2)sc2nc(-c3ccc(F)cc3)cn12`: the compound was classed as inactive.
On the same count and under the same terms, with `Cc1cc(C)cc(NC(c2cccc(Cl)c2)c2nnc(-c3ccccc3)o2)c1` (stereo not drawn) the entry was “inactive”.
`Cc1ccccc1OCC(=O)NCC(c1ccc(Cl)cc1)N1CCOCC1` (stereo not drawn): the “activity change, negative = inhibition” value is inactive: 1.84%.
`CCC(=O)Nc1cc(-c2nc3cc(C)cc(C)c3o2)ccc1C`: the “activity change, negative = inhibition” value is inactive: -32.2%.
The same measure, in the same setting: the same measure for `Cc1cccc2c1-c1sc(C(=O)Nc3ccccc3C(N)=O)cc1CO2`: inactive: -6.99%.
With `CCCCOc1ccc(S(=O)(=O)Nc2ccc(-c3ccc(N4CCCCC4)nn3)cc2)cc1`, the result was inactive.
Regarding `O=C1c2[nH]nc(-c3ccccc3O)c2C(c2cccc(Br)c2)N1Cc1ccncc1` (stereo not drawn), the “activity change, negative = inhibition” value was inactive: 3.49%.
Take `O=C(Nc1ccc(Br)cc1F)c1ccc2nc(CCc3ccccc3)oc2c1`: the result was inactive.
As for `CN(C(=O)CSc1cn(CC(=O)N2CCCC2)c2ccccc12)c1ccccc1`, the “activity change, negative = inhibition” value is inactive: -0.53%.
The same measure, in the same setting: the same measure for `COc1ccc(NC(=O)Cn2ccn(Cc3ccccc3)c(=O)c2=O)cc1Cl`: inactive: 13%; for `CCOC(=O)c1ccc(NC(=O)c2cccc3c(=O)c4c([nH]c23)CCCC4)cc1`: inactive: 4.71%; for `CCc1ccccc1NC(=O)Cn1c(C(=O)OC)cc2oc(C)cc21`: inactive: 4%.
As for `COc1ccc(-n2c(Cc3ccccc3)nnc2SCc2nc(-c3ccccc3C)no2)cc1`, the “activity change, negative = inhibition” value is inactive: 4.61%.
As to `CCN(CC)CCNC(=O)c1sc2nc(C)cc(C)c2c1-n1cccc1`, the “activity change, negative = inhibition” value was inactive: -5.77%.
Turning to `Cc1ccc2onc(CNC(=O)N(C)Cc3ccccc3)c2c1`, the “activity change, negative = inhibition” value was inactive: 5.42%.
The same measure, in the same setting: the same measure for `Clc1ccccc1CNc1nc2ccccc2c2nc(-c3ccccc3)nn12`: inactive: 1.16%.
`O=C(C1CCCCC1)N(Cc1cccnc1)c1nc2c(F)cccc2s1`: the “activity change, negative = inhibition” value is inactive: -6.95%.
As to `CC(C)Oc1ccc(CNC(=O)c2ccc3c(c2)N(Cc2ccc(F)cc2)CCS3)cc1`, the “activity change, negative = inhibition” value is inactive: -18%.
